Reference: the supplement of paper PMC8728848
The other results are listed elsewhere or left out.

How the values were obtained:
Assay in all cases: glycan array binding signal (z-score within array); higher = stronger binding
Details in all cases: glycan notation: IUPAC condensed, linker removed
[1] = target: Gal(b1-4)GlcNAc(b1-3)Gal(b1-4)Glc
How it was run: (§1)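 Columns mapping to the same glycan were averaged after glycan names were converted to IUPAC-condensed notation. The data come from 3228 arrays in the Consortium for Functional Glycomics database, limited to those with an available protein sequence. Binding is reported as a within-array Z-score averaged across arrays of one protein sequence and across linkers.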

[2] = target: Gal(b1-4)GlcNAc(b1-3)Gal(b1-4)GlcNAc
How it was run: as §1

[3] = target: Gal(b1-4)GlcNAc(b1-3)Gal(b1-4)GlcNAc(b1-2)Man(a1-3)[Gal(b1-4)GlcNAc(b1-3)Gal(b1-4)GlcNAc(b1-2)Man(a1-6)]Man(b1-4)GlcNAc(b1-4)GlcNAc
How it was run: as §1

[4] = target: Gal(b1-4)GlcNAc(b1-3)Gal(b1-4)GlcNAc(b1-2)Man(a1-3)[Gal(b1-4)GlcNAc(b1-3)Gal(b1-4)GlcNAc(b1-2)Man(a1-6)]Man(b1-4)GlcNAc(b1-4)[Fuc(a1-6)]GlcNAc
How it was run: as §1

[5] = target: Gal(b1-4)GlcNAc(b1-3)Gal(b1-4)GlcNAc(b1-2)[Gal(b1-4)GlcNAc(b1-3)Gal(b1-4)GlcNAc(b1-6)]Man(a1-6)[Gal(b1-4)GlcNAc(b1-3)Gal(b1-4)GlcNAc(b1-2)Man(a1-3)]Man(b1-4)GlcNAc(b1-4)GlcNAc
How it was run: as §1

[6] = target: Gal(b1-4)GlcNAc(b1-3)Gal(b1-4)GlcNAc(b1-2)[Gal(b1-4)GlcNAc(b1-3)Gal(b1-4)GlcNAc(b1-6)]Man(a1-6)[Gal(b1-4)GlcNAc(b1-3)Gal(b1-4)GlcNAc(b1-2)Man(a1-3)]Man(b1-4)GlcNAc(b1-4)[Fuc(a1-6)]GlcNAc
How it was run: as §1

[7] = target: Gal(b1-4)GlcNAc(b1-3)Gal(b1-4)GlcNAc(b1-3)Gal(b1-4)GlcNAc
How it was run: as §1

[8] = target: Gal(b1-4)GlcNAc(b1-3)Gal(b1-4)GlcNAc(b1-3)Gal(b1-4)GlcNAc(b1-2)Man(a1-3)[Gal(b1-4)GlcNAc(b1-3)Gal(b1-4)GlcNAc(b1-3)Gal(b1-4)GlcNAc(b1-2)Man(a1-6)]Man(b1-4)GlcNAc(b1-4)GlcNAc
How it was run: as §1

[9] = target: Gal(b1-4)GlcNAc(b1-3)Gal(b1-4)GlcNAc(b1-3)Gal(b1-4)GlcNAc(b1-2)Man(a1-3)[Gal(b1-4)GlcNAc(b1-3)Gal(b1-4)GlcNAc(b1-3)Gal(b1-4)GlcNAc(b1-2)Man(a1-6)]Man(b1-4)GlcNAc(b1-4)[Fuc(a1-6)]GlcNAc
How it was run: as §1

[10] = target: Gal(b1-4)GlcNAc(b1-3)Gal(b1-4)GlcNAc(b1-3)Gal(b1-4)GlcNAc(b1-2)[Gal(b1-4)GlcNAc(b1-3)Gal(b1-4)GlcNAc(b1-3)Gal(b1-4)GlcNAc(b1-6)]Man(a1-6)[Gal(b1-4)GlcNAc(b1-3)Gal(b1-4)GlcNAc(b1-3)Gal(b1-4)GlcNAc(b1-2)Man(a1-3)]Man(b1-4)GlcNAc(b1-4)[Fuc(a1-6)]GlcNAc
How it was run: as §1

[11] = target: Gal(b1-4)GlcNAc(b1-3)Gal(b1-4)GlcNAc(b1-3)Gal(b1-4)GlcNAc(b1-3)Gal(b1-4)GlcNAc(b1-2)Man(a1-3)[Gal(b1-4)GlcNAc(b1-3)Gal(b1-4)GlcNAc(b1-3)Gal(b1-4)GlcNAc(b1-3)Gal(b1-4)GlcNAc(b1-2)Man(a1-6)]Man(b1-4)GlcNAc(b1-4)GlcNAc
How it was run: as §1

[12] = target: Gal(b1-4)GlcNAc(b1-3)Gal(b1-4)GlcNAc(b1-3)Gal(b1-4)GlcNAc(b1-3)Gal(b1-4)GlcNAc(b1-2)Man(a1-3)[Gal(b1-4)GlcNAc(b1-3)Gal(b1-4)GlcNAc(b1-3)Gal(b1-4)GlcNAc(b1-3)Gal(b1-4)GlcNAc(b1-2)Man(a1-6)]Man(b1-4)GlcNAc(b1-4)[Fuc(a1-6)]GlcNAc
How it was run: as §1

[13] = target: Gal(b1-4)GlcNAc(b1-3)Gal(b1-4)GlcNAc(b1-3)Gal(b1-4)GlcNAc(b1-3)Gal(b1-4)GlcNAc(b1-2)[Gal(b1-4)GlcNAc(b1-3)Gal(b1-4)GlcNAc(b1-3)Gal(b1-4)GlcNAc(b1-3)Gal(b1-4)GlcNAc(b1-6)]Man(a1-6)[Gal(b1-4)GlcNAc(b1-3)Gal(b1-4)GlcNAc(b1-3)Gal(b1-4)GlcNAc(b1-3)Gal(b1-4)GlcNAc(b1-2)Man(a1-3)]Man(b1-4)GlcNAc(b1-4)[Fuc(a1-6)]GlcNAc
How it was run: as §1

[14] = target: Gal(b1-4)GlcNAc(b1-3)Gal(b1-4)GlcNAc(b1-3)Gal(b1-4)GlcNAc(b1-3)Gal(b1-4)GlcNAc(b1-3)Gal(b1-4)GlcNAc(b1-2)Man(a1-3)[Gal(b1-4)GlcNAc(b1-3)Gal(b1-4)GlcNAc(b1-3)Gal(b1-4)GlcNAc(b1-3)Gal(b1-4)GlcNAc(b1-3)Gal(b1-4)GlcNAc(b1-2)Man(a1-6)]Man(b1-4)GlcNAc(b1-4)GlcNAc
How it was run: as §1

[15] = target: Gal(b1-4)GlcNAc(b1-3)Gal(b1-4)GlcNAc(b1-3)Gal(b1-4)GlcNAc(b1-3)Gal(b1-4)GlcNAc(b1-3)Gal(b1-4)GlcNAc(b1-2)Man(a1-3)[Gal(b1-4)GlcNAc(b1-3)Gal(b1-4)GlcNAc(b1-3)Gal(b1-4)GlcNAc(b1-3)Gal(b1-4)GlcNAc(b1-3)Gal(b1-4)GlcNAc(b1-2)Man(a1-6)]Man(b1-4)GlcNAc(b1-4)[Fuc(a1-6)]GlcNAc
How it was run: as §1

[16] = target: Gal(b1-4)GlcNAc(b1-3)Gal(b1-4)GlcNAc(b1-3)Gal(b1-4)GlcNAc(b1-3)Gal(b1-4)GlcNAc(b1-3)Gal(b1-4)GlcNAc(b1-2)[Gal(b1-4)GlcNAc(b1-3)Gal(b1-4)GlcNAc(b1-3)Gal(b1-4)GlcNAc(b1-3)Gal(b1-4)GlcNAc(b1-3)Gal(b1-4)GlcNAc(b1-6)]Man(a1-6)[Gal(b1-4)GlcNAc(b1-3)Gal(b1-4)GlcNAc(b1-3)Gal(b1-4)GlcNAc(b1-3)Gal(b1-4)GlcNAc(b1-3)Gal(b1-4)GlcNAc(b1-2)Man(a1-3)]Man(b1-4)GlcNAc(b1-4)[Fuc(a1-6)]GlcNAc
How it was run: as §1

[17] = target: Gal(b1-4)GlcNAc(b1-3)Gal(b1-4)GlcNAc(b1-3)Gal(b1-4)GlcNAc(b1-3)Gal(b1-4)GlcNAc(b1-3)Gal(b1-4)GlcNAc(b1-3)Gal(b1-4)GlcNAc(b1-2)Man(a1-3)[Gal(b1-4)GlcNAc(b1-3)Gal(b1-4)GlcNAc(b1-3)Gal(b1-4)GlcNAc(b1-3)Gal(b1-4)GlcNAc(b1-3)Gal(b1-4)GlcNAc(b1-3)Gal(b1-4)GlcNAc(b1-2)Man(a1-6)]Man(b1-4)GlcNAc(b1-4)GlcNAc
How it was run: as §1

[18] = target: Gal(b1-4)GlcNAc(b1-3)Gal(b1-4)GlcNAc(b1-3)GalNAc
How it was run: as §1

[19] = target: Gal(b1-4)GlcNAc(b1-3)Gal(b1-4)GlcNAc(b1-3)[Gal(b1-4)GlcNAc(b1-3)Gal(b1-4)GlcNAc(b1-6)]GalNAc
How it was run: as §1

B1: Cohesin-marm-DC-ASGPR (protein)
chain: LDITSHHHHHHDDLDAVRIKVDTVNAKPGDTVRIPVRFSGIPSKGIANCDFVYSYDPNVLEIIEIEPGDIIVDPNPDKSFDTAVYPDRKIIVFLFAEDSGTGAYAITKDGVFATIVAKVKEGAPNGLSVIKFVEVGGFANNDLVEQKTQFFDGGVNVGDTTEPATPTTPVTTPTTTDDLDAASSKFQRDLVTLRTDFSNFTSNTLAEIQALTSQGSSLQETIASLKAEVEGHKQELQAGASELQEHNKQKAHLGRCPHTCVCPSSFVCVPVHSEILLRVQQLVQDLNKLSCQVAILKNNATTERTCCPINWVEHQGSCYWFSRSGKTWPEAERYCQLENTHLVVINSREEQNFVQAHLGSAYTWMGLSDPEGVWKWVDGTDYSSGFQNWKPGQPDDWQGHGLGGGEDCAHFHPDGRWNDDVCQRSYHWVCEAGLTQASQDSHAS
glycan array binding signal (z-score) [1]: -0.297
glycan array binding signal (z-score) [2]: -0.291
glycan array binding signal (z-score) [3]: -0.175
glycan array binding signal (z-score) [4]: -0.257
glycan array binding signal (z-score) [5]: 0.022
glycan array binding signal (z-score) [6]: -0.249
glycan array binding signal (z-score) [7]: -0.304
glycan array binding signal (z-score) [8]: -0.177
glycan array binding signal (z-score) [9]: -0.117
glycan array binding signal (z-score) [10]: -0.297
glycan array binding signal (z-score) [11]: -0.046
glycan array binding signal (z-score) [12]: -0.129
glycan array binding signal (z-score) [13]: -0.272
glycan array binding signal (z-score) [14]: -0.093
glycan array binding signal (z-score) [15]: -0.27
glycan array binding signal (z-score) [16]: -0.207
glycan array binding signal (z-score) [17]: -0.295
glycan array binding signal (z-score) [18]: -0.287
glycan array binding signal (z-score) [19]: -0.242
